# In the supplement of paper PMC8728848:
# The other results are listed elsewhere or left out.
# How the values were obtained:
# Assay in all cases: glycan array binding signal (z-score within array); higher = stronger binding
# Details in all cases: glycan notation: IUPAC condensed, linker removed
# [1] = molecular target: Neu5Ac(a2-3)Gal(b1-3)GlcNAc(b1-3)Gal(b1-3)GlcNAc
# In short: (§1)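 The binding signal is a Z-score computed within each array and averaged over linkers. Arrays of the same protein sequence at different concentrations or buffers were also averaged together. Data originate from 3228 arrays in the Consortium for Functional Glycomics database, kept only where the protein sequence was available.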
# [2] = molecular target: Neu5Ac(a2-3)Gal(b1-3)GlcNAc6S
# In short: as §1
# [3] = molecular target: Neu5Ac(a2-3)Gal(b1-3)[Fuc(a1-4)]GlcNAc
# In short: as §1
# [4] = molecular target: Neu5Ac(a2-3)Gal(b1-3)[Fuc(a1-4)]GlcNAc(b1-3)Gal(b1-4)[Fuc(a1-3)]GlcNAc
# In short: as §1
# [5] = molecular target: Neu5Ac(a2-3)Gal(b1-3)[Neu5Ac(a2-3)Gal(b1-4)]GlcNAc
# In short: as §1
# [6] = molecular target: Neu5Ac(a2-3)Gal(b1-3)[Neu5Ac(a2-6)]GalNAc
# In short: as §1
# Neu5Ac(a2-3)Gal(b1-4)Glc = molecular target: Neu5Ac(a2-3)Gal(b1-4)Glc
# In short: as §1
# [7] = molecular target: Neu5Ac(a2-3)Gal(b1-4)GlcNAc
# In short: as §1
# [8] = molecular target: Neu5Ac(a2-3)Gal(b1-4)GlcNAc(b1-2)Man(a1-3)[GlcNAc(b1-2)Man(b1-4)GlcNAc(b1-2)Man(a1-6)]Man(b1-4)GlcNAc(b1-4)GlcNAc
# In short: as §1
# [9] = molecular target: Neu5Ac(a2-3)Gal(b1-4)GlcNAc(b1-2)Man(a1-3)[Neu5Ac(a2-3)Gal(b1-4)GlcNAc(b1-2)Man(a1-6)]Man(b1-4)GlcNAc(b1-4)GlcNAc
# In short: as §1
# [10] = molecular target: Neu5Ac(a2-3)Gal(b1-4)GlcNAc(b1-2)Man(a1-3)[Neu5Ac(a2-6)Gal(b1-4)GlcNAc(b1-2)Man(a1-6)]Man(b1-4)GlcNAc(b1-4)GlcNAc
# In short: as §1
# [11] = molecular target: Neu5Ac(a2-3)Gal(b1-4)GlcNAc(b1-3)Gal(b1-3)GlcNAc
# In short: as §1
# [12] = molecular target: Neu5Ac(a2-3)Gal(b1-4)GlcNAc(b1-3)Gal(b1-4)GlcNAc
# In short: as §1
# [13] = molecular target: Neu5Ac(a2-3)Gal(b1-4)GlcNAc(b1-3)Gal(b1-4)GlcNAc(b1-3)Gal(b1-4)GlcNAc
# In short: as §1
# [14] = molecular target: Neu5Ac(a2-3)Gal(b1-4)GlcNAc(b1-3)Gal(b1-4)[Fuc(a1-3)]GlcNAc
# In short: as §1
# [15] = molecular target: Neu5Ac(a2-3)Gal(b1-4)GlcNAc(b1-6)[Gal(b1-3)]GalNAc
# In short: as §1
# [16] = molecular target: Neu5Ac(a2-3)Gal(b1-4)GlcNAc(b1-6)[Neu5Ac(a2-3)Gal(b1-3)]GalNAc
# In short: as §1
# [17] = molecular target: Neu5Ac(a2-3)Gal(b1-4)GlcNAc6S
# In short: as §1
# [18] = molecular target: Neu5Ac(a2-3)Gal(b1-4)[Fuc(a1-3)]GlcNAc
# In short: as §1
# [19] = molecular target: Neu5Ac(a2-3)Gal(b1-4)[Fuc(a1-3)]GlcNAc(b1-3)Gal
# In short: as §1
# [20] = molecular target: Neu5Ac(a2-3)Gal(b1-4)[Fuc(a1-3)]GlcNAc(b1-3)Gal(b1-4)GlcNAc
# In short: as §1
# [21] = molecular target: Neu5Ac(a2-3)Gal(b1-4)[Fuc(a1-3)]GlcNAc(b1-3)Gal(b1-4)[Fuc(a1-3)]GlcNAc(b1-3)Gal(b1-4)[Fuc(a1-3)]GlcNAc
# In short: as §1
# [22] = molecular target: Neu5Ac(a2-3)Gal(b1-4)[Fuc(a1-3)]GlcNAc(b1-6)[Gal(b1-3)]GalNAc
# In short: as §1
# [23] = molecular target: Neu5Ac(a2-3)Gal(b1-4)[Fuc(a1-3)]GlcNAc6S
# In short: as §1
# [24] = molecular target: Neu5Ac(a2-3)Gal6S(b1-4)GlcNAc
# In short: as §1
# [25] = molecular target: Neu5Ac(a2-3)Gal6S(b1-4)[Fuc(a1-3)]GlcNAc
# In short: as §1
# Neu5Ac(a2-3)GalNAc = molecular target: Neu5Ac(a2-3)GalNAc
# In short: as §1
# [26] = molecular target: Neu5Ac(a2-3)GalNAc(b1-4)GlcNAc
# In short: as §1
# [27] = molecular target: Neu5Ac(a2-3)[GalNAc(b1-4)]Gal(b1-4)Glc
# In short: as §1
# [28] = molecular target: Neu5Ac(a2-3)[GalNAc(b1-4)]Gal(b1-4)GlcNAc
# In short: as §1
# [29] = molecular target: Neu5Ac(a2-3)[Neu5Ac(a2-6)]GalNAc
# In short: as §1
# Neu5Ac(a2-6)Gal = molecular target: Neu5Ac(a2-6)Gal
# In short: as §1
binder,measurement,setting,value
"L-Selectin (Mus musculus), P18337 (protein) MVFPWRCEGTYWGSRNILKLWVWTLLCCDFLIHHGTHCWTYHYSEKPMNWENARKFCKQNYTDLVAIQNKREIEYLENTLPKSPYYYWIGIRKIGKMWTWVGTNKTLTKEAENWGAGEPNNKKSKEDCVEIYIKRERDSGKWNDDACHKRKAALCYTASCQPGSCNGRGECVETINNHTCICDAGYYGPQCQYVVQCEPLEAPELGTMDCIHPLGNFSFQSKCAFNCSEGRELLGTAETQCGASGNWSSPEPICQVVQCEPLEAPELGTMDCIHPLGNFSFQSKCAFNCSEGRELLGTAETQCGASGNWSSPEPICQETNRSFSKIKEGDYNPLFIPVAVMVTAFSGLAFLIWLARRLKKGKKSQERMDDPY",glycan array binding signal (z-score),[1],-0.046
same,glycan array binding signal (z-score),[2],-0.124
same,glycan array binding signal (z-score),[3],1.44
same,glycan array binding signal (z-score),[4],0.559
same,glycan array binding signal (z-score),[5],-0.237
same,glycan array binding signal (z-score),[6],-0.133
same,glycan array binding signal (z-score),Neu5Ac(a2-3)Gal(b1-4)Glc,0.158
same,glycan array binding signal (z-score),[7],0.04
same,glycan array binding signal (z-score),[8],-0.498
same,glycan array binding signal (z-score),[9],-0.437
same,glycan array binding signal (z-score),[10],-0.36
same,glycan array binding signal (z-score),[11],-0.041
same,glycan array binding signal (z-score),[12],-0.283
same,glycan array binding signal (z-score),[13],0.041
same,glycan array binding signal (z-score),[14],-0.118
same,glycan array binding signal (z-score),[15],-0.643
same,glycan array binding signal (z-score),[16],-0.367
same,glycan array binding signal (z-score),[17],-0.02
same,glycan array binding signal (z-score),[18],1.21
same,glycan array binding signal (z-score),[19],0.013
same,glycan array binding signal (z-score),[20],-0.036
same,glycan array binding signal (z-score),[21],-0.175
same,glycan array binding signal (z-score),[22],-0.147
same,glycan array binding signal (z-score),[23],8.82
same,glycan array binding signal (z-score),[24],-0.165
same,glycan array binding signal (z-score),[25],0.001
same,glycan array binding signal (z-score),Neu5Ac(a2-3)GalNAc,-0.33
same,glycan array binding signal (z-score),[26],-0.335
same,glycan array binding signal (z-score),[27],-0.195
same,glycan array binding signal (z-score),[28],-0.282
same,glycan array binding signal (z-score),[29],0.295
same,glycan array binding signal (z-score),Neu5Ac(a2-6)Gal,-0.314
